{"source": "the antibiotic and cytotoxicity screens of Wong et al. (2023)", "key": {"[1]": {"test_system": "HSkMC (human skeletal muscle cells)", "assay": "cytotoxicity call (relative viability < 0.9)", "conditions": "10 µM"}, "[2]": {"test_system": "HepG2", "assay": "cytotoxicity call (relative viability < 0.9)", "conditions": "10 µM"}, "[3]": {"test_system": "S. aureus RN4220", "assay": "growth inhibition call (relative growth <= 0.2)", "conditions": "50 µM"}}, "note": "Some of the results follow.", "data": [{"smiles": "CN(C)CC#Cc1ccc([C@H]2[C@@H](CO)N3C(=O)CN(C(=O)c4cccnc4)C[C@@H]23)cc1", "values": [{"measurement": "cytotoxicity call", "setting": "[1]", "result": "inactive"}, {"measurement": "cytotoxicity call", "setting": "[2]", "result": "inactive"}, {"measurement": "growth inhibition call", "setting": "[3]", "result": "inactive"}]}, {"smiles": "C[C@H]1CN([C@@H](C)CO)C(=O)Cc2cc(NC(=O)CCCN(C)C)ccc2O[C@@H]1CN(C)Cc1ccc(Oc2ccccc2)cc1", "values": [{"measurement": "cytotoxicity call", "setting": "[1]", "result": "inactive"}, {"measurement": "cytotoxicity call", "setting": "[2]", "result": "active"}, {"measurement": "growth inhibition call", "setting": "[3]", "result": "inactive"}]}, {"smiles": "CC(C)NC(=O)NCC[C@H]1CC[C@@H](NC(=O)CN(C)C)[C@@H](CO)O1", "values": [{"measurement": "cytotoxicity call", "setting": "[1]", "result": "inactive"}, {"measurement": "cytotoxicity call", "setting": "[2]", "result": "inactive"}, {"measurement": "growth inhibition call", "setting": "[3]", "result": "inactive"}]}, {"smiles": "C[C@H](CO)N1C[C@H](C)[C@@H](CN(C)Cc2ccc(Oc3ccccc3)cc2)Oc2c(NC(=O)c3ccc(-c4nccs4)cc3)cccc2C1=O", "values": [{"measurement": "cytotoxicity call", "setting": "[1]", "result": "inactive"}, {"measurement": "cytotoxicity call", "setting": "[2]", "result": "inactive"}, {"measurement": "growth inhibition call", "setting": "[3]", "result": "inactive"}]}, {"smiles": "N[C@@H](CC(=O)O)C(=O)O", "values": [{"measurement": "cytotoxicity call", "setting": "[1]", "result": "inactive"}, {"measurement": "cytotoxicity call", "setting": "[2]", "result": "inactive"}, {"measurement": "growth inhibition call", "setting": "[3]", "result": "inactive"}]}, {"smiles": "C[C@H](CO)N1C[C@H](C)[C@H](CN(C)S(=O)(=O)c2ccc(F)cc2)Oc2ncc(-c3ccccc3)cc2C1=O", "values": [{"measurement": "cytotoxicity call", "setting": "[1]", "result": "inactive"}, {"measurement": "cytotoxicity call", "setting": "[2]", "result": "inactive"}, {"measurement": "growth inhibition call", "setting": "[3]", "result": "inactive"}]}, {"smiles": "CN1CC(=O)N2CCN(C(=O)c3ccc4n[nH]nc4c3)C[C@@H]2C1=O", "values": [{"measurement": "cytotoxicity call", "setting": "[1]", "result": "inactive"}, {"measurement": "cytotoxicity call", "setting": "[2]", "result": "inactive"}, {"measurement": "growth inhibition call", "setting": "[3]", "result": "inactive"}]}, {"smiles": "C[C@H]1CN([C@@H](C)CO)C(=O)c2c(c3ccccc3n2C)-c2ccccc2CO[C@H]1CN(C)C(=O)c1ccc(F)cc1", "values": [{"measurement": "cytotoxicity call", "setting": "[1]", "result": "inactive"}, {"measurement": "cytotoxicity call", "setting": "[2]", "result": "inactive"}, {"measurement": "growth inhibition call", "setting": "[3]", "result": "inactive"}]}, {"smiles": "CS(=O)(=O)N1[C@H](C(=O)O)[C@@H](CO)[C@@H]2Cn3c(ccc(-c4ccc(F)cc4)c3=O)[C@@H]21", "values": [{"measurement": "cytotoxicity call", "setting": "[1]", "result": "inactive"}, {"measurement": "cytotoxicity call", "setting": "[2]", "result": "inactive"}, {"measurement": "growth inhibition call", "setting": "[3]", "result": "inactive"}]}, {"smiles": "O=C(O)C[C@@H]1C(=O)O[C@H]2[C@@H](OC(=O)c3cc(O)c(O)c(O)c3)[C@H](OC(=O)c3cc(O)c(O)c4c3[C@H]1[C@H](O)C(=O)O4)[C@H](OC(=O)c1cc(O)c(O)c(O)c1)O[C@@H]2COC(=O)c1cc(O)c(O)c(O)c1", "values": [{"measurement": "cytotoxicity call", "setting": "[1]", "result": "inactive"}, {"measurement": "cytotoxicity call", "setting": "[2]", "result": "active"}, {"measurement": "growth inhibition call", "setting": "[3]", "result": "inactive"}]}, {"smiles": "CS(=O)(=O)N1CCc2ccc(N)cc2C1", "values": [{"measurement": "cytotoxicity call", "setting": "[1]", "result": "inactive"}, {"measurement": "cytotoxicity call", "setting": "[2]", "result": "inactive"}, {"measurement": "growth inhibition call", "setting": "[3]", "result": "inactive"}]}, {"smiles": "COc1ccc(S(=O)(=O)N(C)C[C@@H]2Oc3ccc(NC(=O)C4CC4)cc3CC(=O)N([C@@H](C)CO)C[C@@H]2C)cc1", "values": [{"measurement": "cytotoxicity call", "setting": "[1]", "result": "inactive"}, {"measurement": "cytotoxicity call", "setting": "[2]", "result": "inactive"}, {"measurement": "growth inhibition call", "setting": "[3]", "result": "inactive"}]}, {"smiles": "Cc1ccc(S(=O)(=O)N(C)C[C@@H]2OCCCC[C@H](C)Oc3ccc(NC(=O)Nc4ccc(C(F)(F)F)cc4)cc3C(=O)N([C@@H](C)CO)C[C@H]2C)cc1", "values": [{"measurement": "cytotoxicity call", "setting": "[1]", "result": "inactive"}, {"measurement": "cytotoxicity call", "setting": "[2]", "result": "inactive"}, {"measurement": "growth inhibition call", "setting": "[3]", "result": "inactive"}]}, {"smiles": "N=C(N)NCCS", "values": [{"measurement": "cytotoxicity call", "setting": "[1]", "result": "inactive"}, {"measurement": "cytotoxicity call", "setting": "[2]", "result": "inactive"}, {"measurement": "growth inhibition call", "setting": "[3]", "result": "inactive"}]}, {"smiles": "CC(C)[C@H](NC=O)C(=O)OC[C@H](O)[C@H](O)[C@H](O)[C@H](O)COC(=O)[C@H](NC=O)C(C)C", "values": [{"measurement": "cytotoxicity call", "setting": "[1]", "result": "inactive"}, {"measurement": "cytotoxicity call", "setting": "[2]", "result": "inactive"}, {"measurement": "growth inhibition call", "setting": "[3]", "result": "inactive"}]}, {"smiles": "C[C@@H]1CN([C@@H](C)CO)C(=O)c2cc(NS(=O)(=O)c3cccs3)ccc2O[C@@H](C)CCCCO[C@@H]1CN(C)Cc1ccc(C(=O)O)cc1", "values": [{"measurement": "cytotoxicity call", "setting": "[1]", "result": "inactive"}, {"measurement": "cytotoxicity call", "setting": "[2]", "result": "inactive"}, {"measurement": "growth inhibition call", "setting": "[3]", "result": "inactive"}]}, {"smiles": "C[C@@H]1CN([C@H](C)CO)C(=O)c2cc(NC(=O)CCC(F)(F)F)ccc2O[C@@H](C)CCCCO[C@H]1CN(C)C(=O)Nc1ccc(F)cc1", "values": [{"measurement": "cytotoxicity call", "setting": "[1]", "result": "inactive"}, {"measurement": "cytotoxicity call", "setting": "[2]", "result": "inactive"}, {"measurement": "growth inhibition call", "setting": "[3]", "result": "inactive"}]}, {"smiles": "C[C@H]1CN([C@@H](C)CO)C(=O)c2cc(NC(=O)NC3CCCCC3)ccc2O[C@H]1CN(C)C(=O)Nc1cccc2ccccc12", "values": [{"measurement": "cytotoxicity call", "setting": "[1]", "result": "inactive"}, {"measurement": "cytotoxicity call", "setting": "[2]", "result": "active"}, {"measurement": "growth inhibition call", "setting": "[3]", "result": "inactive"}]}, {"smiles": "O=C(C[C@H]1CC[C@H]2[C@@H](COC[C@@H](O)CN2C(=O)Nc2ccc(C(F)(F)F)cc2)O1)NCc1ccncn1", "values": [{"measurement": "cytotoxicity call", "setting": "[1]", "result": "inactive"}, {"measurement": "cytotoxicity call", "setting": "[2]", "result": "inactive"}, {"measurement": "growth inhibition call", "setting": "[3]", "result": "inactive"}]}, {"smiles": "CCCNC(=O)N(C)C[C@@H]1Oc2cc(C#Cc3ccccn3)ccc2S(=O)(=O)N([C@@H](C)CO)C[C@@H]1C", "values": [{"measurement": "cytotoxicity call", "setting": "[1]", "result": "inactive"}, {"measurement": "cytotoxicity call", "setting": "[2]", "result": "inactive"}, {"measurement": "growth inhibition call", "setting": "[3]", "result": "inactive"}]}, {"smiles": "CN(C)CCCNC(=O)C[C@@H]1CC[C@H](NS(=O)(=O)c2ccccc2)[C@@H](CO)O1", "values": [{"measurement": "cytotoxicity call", "setting": "[1]", "result": "inactive"}, {"measurement": "cytotoxicity call", "setting": "[2]", "result": "inactive"}, {"measurement": "growth inhibition call", "setting": "[3]", "result": "inactive"}]}, {"smiles": "Cn1cnc(S(=O)(=O)N2C[C@H](O)COC[C@H]3O[C@H](CC(=O)NC4CCC4)CC[C@@H]32)c1", "values": [{"measurement": "cytotoxicity call", "setting": "[1]", "result": "inactive"}, {"measurement": "cytotoxicity call", "setting": "[2]", "result": "inactive"}, {"measurement": "growth inhibition call", "setting": "[3]", "result": "inactive"}]}, {"smiles": "C[C@@H](N)CCCC(C)(C)O", "values": [{"measurement": "cytotoxicity call", "setting": "[1]", "result": "inactive"}, {"measurement": "cytotoxicity call", "setting": "[2]", "result": "inactive"}, {"measurement": "growth inhibition call", "setting": "[3]", "result": "inactive"}]}, {"smiles": "C[C@@H]1CN([C@H](C)CO)C(=O)Cc2cc(NC(=O)Nc3ccc(C(F)(F)F)cc3)ccc2O[C@@H]1CN(C)Cc1ccc2c(c1)OCO2", "values": [{"measurement": "cytotoxicity call", "setting": "[1]", "result": "active"}, {"measurement": "cytotoxicity call", "setting": "[2]", "result": "active"}, {"measurement": "growth inhibition call", "setting": "[3]", "result": "inactive"}]}, {"smiles": "COc1ccc(NC(=O)Cn2c(=O)c3c(OC)ccnc3n(C)c2=O)c(OC)c1", "values": [{"measurement": "cytotoxicity call", "setting": "[1]", "result": "inactive"}, {"measurement": "cytotoxicity call", "setting": "[2]", "result": "inactive"}, {"measurement": "growth inhibition call", "setting": "[3]", "result": "inactive"}]}, {"smiles": "O=C(C[C@@H]1C=C[C@@H](NC(=O)Nc2cc(F)ccc2F)[C@@H](CO)O1)NCCCN1CCOCC1", "values": [{"measurement": "cytotoxicity call", "setting": "[1]", "result": "inactive"}, {"measurement": "cytotoxicity call", "setting": "[2]", "result": "inactive"}, {"measurement": "growth inhibition call", "setting": "[3]", "result": "inactive"}]}, {"smiles": "CO[C@@H]1CN(C)C(=O)c2cc(NC(C)=O)ccc2OC[C@H](C)N(S(=O)(=O)c2cn(C)cn2)C[C@H]1C", "values": [{"measurement": "cytotoxicity call", "setting": "[1]", "result": "inactive"}, {"measurement": "cytotoxicity call", "setting": "[2]", "result": "inactive"}, {"measurement": "growth inhibition call", "setting": "[3]", "result": "inactive"}]}]}
